# Source: PubChem BioAssay AID1345083 (National Center for Advancing Translational Sciences (NCATS), 2018)
# The whole screen tested about 94,000 compounds, of which about 6,200 (6.6%) were called active. Inconclusive means that the source gave no clear call. Such entries were picked first, then a sample of the others. Calls come from the whole dose curve; as a rule, active = well fitted inhibition curve with a large enough effect; inconclusive = small, poorly fitted or top-dose-only effect; inactive = flat fitted curve, though single readings scatter. Potencies beside an inconclusive call are fits to weak or partial responses and may not hold up.
# Assay: Cytotoxic Profiling in HEK 293 Cell Line of Diverse Libraries Using Quantitative High-Throughput Screening; note: nearly all actives have a fitted effect of over 60% in size
# Details: HEK 293 viability, ATP luminescence (CellTiter-Glo), 48-72 h; series mostly up to 115 µM
# Summary of the method: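 Viability of HEK 293 cells, plated at 250 cells/well, was judged by cellular ATP after compound treatment for 48 or 72 hr. Luminescence was imaged 10 min after CellTiter-Glo addition at room temperature.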
# Potency is the fitted concentration of half-maximal effect; tags give direction and shape of the fitted curve.
row,SMILES,Potency
1,C[C@]1(CO)[C@H]2Cc3sc(NC(=O)c4ccco4)nc3[C@@H](CC(=O)Nc3ccccc3)[C@]2(C)CC[C@H]1O,"inconclusive: 44.7 µM [inhibitor, partial curve]"
2,CC1=C[C@@H](CNCc2ccc(F)cc2)[C@H](C(C)C)C[C@H]1Cc1nnc(-c2cncn2C)o1,active: 44.7 µM
3,O=C(c1cc(F)ccc1F)N1CCCC2(C1)NC(=O)N(Cc1ccc(Cl)cc1)C2=O (stereo not given),"inconclusive: 31.6 µM [inhibitor, partial curve, poor fit]"
4,COc1ccccc1-c1cccc(C(=O)N2CCC[C@H]2C(=O)NCC2CCCCCC2)c1,"inconclusive: 56.2 µM [inhibitor, partial curve, poor fit]"
5,CC1(C)C[C@H]2C[C@@H](Oc3ccccn3)[C@H](N3CCCCC3)[C@]2(O)CO1,"inconclusive: 31.6 µM [inhibitor, partial curve, poor fit]"
6,O=C(NCCc1ccccc1F)c1ccc2nc(-c3ccccn3)oc2c1,"inconclusive: 56.2 µM [inhibitor, partial curve, poor fit]"
7,CC(C)Cc1cc(C[C@@H]2C[C@H](NC(=O)c3ccco3)C2(C)C)no1,active: 70.8 µM
8,O=C(CC1CCCC1)N1CC(c2nc(CCOCc3ccccc3)no2)C1,"inconclusive: 89.1 µM [inhibitor, single point]"
9,CC(C)c1nc2c(c(-c3ccc(Cl)cc3)n1)CN(C(=O)c1ccccc1Cl)CC2,"inconclusive: 50.1 µM [inhibitor, partial curve, poor fit]"
10,Cn1c(C(=O)NCCc2cnc[nH]2)nc2nc(-c3ccccc3)c(Cl)cc21,"inconclusive: 70.8 µM [inhibitor, partial curve]"
11,Cc1ccccc1C(=O)N1CCC(C(=O)N2CCCC2c2nc3ccncc3[nH]2)CC1 (stereo not given),inactive
12,COc1ccc(CN2CCC3(C2)NC(=O)c2ccccc2O3)cc1 (stereo not given),"inconclusive: 70.8 µM [inhibitor, partial curve]"
13,COc1ccccc1NC(=O)CN1C(=O)NC2(CCC(C)CC2)C1=O (stereo not given),"inconclusive: 70.8 µM [inhibitor, partial curve, poor fit]"
14,COc1ccc(-c2cccc(C(=O)N3CCC(NC(=O)Cc4ccccc4)CC3)c2)nn1,inactive
15,COc1ccc(NC(=O)N2CCC3(CC2)CC(OCC2CC2)CCO3)cc1 (stereo not given),inactive
16,CC1(C)C(=O)N(Cc2ccccc2F)[C@H]2CN(Cc3ccc4c(c3)CCO4)C[C@H]2[S+]1(=O)[O-],"inconclusive: 79.4 µM [inhibitor, partial curve, poor fit]"
17,Cc1cnc(CCNS(=O)(=O)c2ccccc2)n1CC1CC1,inactive
18,O=C(Cc1ccsc1)N1CC(Oc2ccccc2-c2nc(-c3ccccc3)no2)C1,"inconclusive: 50.1 µM [inhibitor, partial curve, poor fit]"
19,COc1ccc(C(=O)N2CCCOCCNC(=O)CC2)cc1,"inconclusive: 79.4 µM [inhibitor, partial curve, poor fit]"
20,C[S+](=O)([O-])c1ccc(-c2cc(C(=O)NCC3CC3)nn3cccc23)cc1,"inconclusive: 50.1 µM [inhibitor, partial curve, poor fit]"
21,Cc1ccc(Cn2cc(-c3ccncc3)cc2C(=O)NCc2ccc(N(C)C)cc2)cc1,active: 44.7 µM
22,COc1ccc(C2Cn3nnc(C(=O)N4CCC(C(=O)NCCC5=CCCCC5)CC4)c3CO2)cc1 (stereo not given),inactive

row,SMILES,Potency
1,CNC(=O)[C@@H]1CN(C(=O)c2cccc(OC(F)(F)F)c2)C[C@H]1CO,inactive
2,CN1[C@@H](CCC(=O)N2CCCC2)CNC(=O)[C@@H]2[C@H]1CCN2C1CCCCC1,inactive
3,COc1ccc(CNC(=O)c2cc3c(n2C)CCN(Cc2ccc(F)cc2)C3)cc1,"inconclusive: 50.1 µM [inhibitor, partial curve, poor fit]"
4,O=C(Nc1ccc(F)cc1)C1CCCN(c2nc3ncccc3o2)C1 (stereo not given),inactive
5,O=C(c1ccc2[nH]ccc2c1)N1CCC(Cn2cc(C3CCCC3)nn2)CC1,"inconclusive: 44.7 µM [inhibitor, partial curve, poor fit]"
6,O=C(NCc1ccc(F)cc1)c1ccc2nnc(-c3ccoc3)n2c1,"inconclusive: 100 µM [inhibitor, partial curve, poor fit]"
7,CCOc1ccc(S(=O)(=O)N2CCN(C3(CC)CCN(S(C)(=O)=O)C3)CC2)cc1 (stereo not given),"inconclusive: 89.1 µM [inhibitor, single point]"
8,Cc1ccccc1COC1CN(C(=O)C2CCN(C(=O)C3CC3)CC2)C1,inactive
9,O=C(c1ccccc1)N1CCN(c2cc(-c3ccc(Cl)cc3)[nH]n2)CC1,"inconclusive: 50.1 µM [inhibitor, partial curve, poor fit]"
10,COCCN1C(=O)c2ccccc2C(C(=O)Nc2nc3c(s2)CCC3)C12CCCC2 (stereo not given),inactive
11,O=C(c1ccc(F)c(Cl)c1)N1CCC(n2cc(-c3nc(-c4ccccc4)no3)nn2)CC1,"inconclusive: 50.1 µM [inhibitor, partial curve, poor fit]"
12,CC(C)(C)c1ccnc(N[C@H]2CO[C@H]3[C@@H]2OC[C@@H]3NC(=O)c2cccs2)n1,"inconclusive: 100 µM [inhibitor, partial curve]"
13,Cc1noc(-c2ccc(OC3CN(C(=O)Cc4ccsc4)C3)cc2)n1,"inconclusive: 50.1 µM [inhibitor, partial curve, poor fit]"
14,Cc1ccc([S+](=O)([O-])N2CCn3c(nn(-c4ccncc4)c3=O)C2)cc1,"inconclusive: 56.2 µM [inhibitor, partial curve, poor fit]"
15,O=C(NCC1Cn2cccc2C(=O)N1Cc1cccnc1)c1n[nH]c(=O)c2ccccc12 (stereo not given),inactive
16,COCC(=O)N[C@@H]1CN(C2CCCCCC2)CC[C@@H]1CO,inactive
17,Cc1ccc(-c2nc(CNC(=O)C(C)(C)N)[nH]c2-c2ccccn2)cc1,"inconclusive: 56.2 µM [inhibitor, partial curve, poor fit]"
18,CCc1ccc(C(=O)N2CCC3(CC2)N=C(c2ccc(Br)cc2)NO3)cc1,inactive
19,C#CCNC(=O)c1ccc2nnc(C3CCOCC3)n2c1,inactive
20,O=C(c1cccc(F)c1)N1CCCC1c1nc(C2CCOCC2)no1 (stereo not given),inactive
21,CN1CCCCC(CC(=O)NCc2cccc(Cl)c2)C1=O (stereo not given),inactive
22,CN1CCN(C)c2cnc(-c3cnn(Cc4ccccc4)c3)cc2C1,"inconclusive: 126 µM [inhibitor, single point]"

row,SMILES,Potency
1,COCCN1CC(CO)C2(CCN(C(=O)c3ccc(C(C)C)cc3)CC2)C1 (stereo not given),"inconclusive: 56.2 µM [inhibitor, partial curve, poor fit]"
2,CCN1C(=O)CCN(CC2CCCCC2)CC12CCOCC2,"inconclusive: 89.1 µM [inhibitor, single point]"
3,Cc1nc(C)c(C(=O)N2CCCC(n3c(C)cnc3C3CCC3)C2)s1 (stereo not given),inactive
4,O=C(c1ccc(C(F)(F)F)cc1)N1CCC2(CN[S+](=O)([O-])c3cccnc3O2)C1 (stereo not given),inactive
5,Cc1ccc(S(=O)(=O)N[C@H]2C[C@@H](c3nc(-c4ccccc4)no3)N(C)C2)cc1,"inconclusive: 79.4 µM [inhibitor, partial curve, poor fit]"
6,COc1ccc(NC(=O)C2(Cc3cccnc3)CCCCC(=O)N2)c(OC)c1 (stereo not given),inactive
7,COc1ccc(C(=O)NC[C@@H]2CC[C@H]3C[C@@H]2C3(C)C)cc1,active: 100 µM
8,Cc1ccccc1CNC(=O)C1CCC(=O)N(CCCc2ccccc2)C1 (stereo not given),"inconclusive: 89.1 µM [inhibitor, single point]"
9,COCC1CN(C(C)=O)CC12CCN(Cc1ccccc1C(F)(F)F)CC2 (stereo not given),"inconclusive: 89.1 µM [inhibitor, single point]"
10,C1CC(N2CCC(c3nc(C4CCOC4)no3)CC2)CCO1 (stereo not given),inactive
11,C[C@H](C(=O)N1Cc2ccccc2CC2(CCCN2C)C1)c1ccccc1 (stereo not given in full),"inconclusive: 79.4 µM [inhibitor, partial curve, poor fit]"
12,CN1CC2(CCCN(Cc3ccc(-c4ccccn4)cc3)C2)OC1=O (stereo not given),"inconclusive: 50.1 µM [inhibitor, partial curve, poor fit]"
13,CN1CC(=O)N(c2ccccc2F)Cc2c(NCc3cccs3)ncnc21,"inconclusive: 89.1 µM [inhibitor, single point]"
14,CC(C)N(C)C(=O)Cn1ncc(N(C)CCc2ccccc2)cc1=O,inactive
15,COCCN1C(=O)c2ccccc2C(C(=O)Nc2nc3c(s2)CCC3)C12CCCCC2 (stereo not given),"inconclusive: 79.4 µM [inhibitor, partial curve, poor fit]"
16,C[C@H]1[C@@H]2[C@@H](O)C([C@H](C)C(=O)NCc3cccs3)CC[C@@]2(C)CC[C@@H]1NC(=O)Cc1ccccc1 (stereo not given in full),"inconclusive: 50.1 µM [inhibitor, partial curve, poor fit]"
17,O=C1CC(c2ccccc2)N(Cc2ccncc2)CCCN(C(=O)c2cc3ccccc3[nH]2)CCN1 (stereo not given),"inconclusive: 50.1 µM [inhibitor, partial curve, poor fit]"
18,Cc1ccc(Nc2ccnc(N3CCCN(C(=O)NC4CCCC4)C3)n2)cc1,active: 15.8 µM
19,COc1ccc2[nH]c3c(c2c1)CCNC31CCN(C(=O)c2ccccn2)CC1,"inconclusive: 44.7 µM [inhibitor, partial curve]"
20,O=C(c1nccc2ccccc12)N1CCC2(CC1)CC(CCOCc1ccccc1)CCO2 (stereo not given),"inconclusive: 50.1 µM [inhibitor, partial curve, poor fit]"
21,CC(=O)Nc1ccc(CNC2(Cc3cc(CN(C)Cc4ccccc4)on3)COC2)cc1,"inconclusive: 126 µM [inhibitor, single point]"
